The results in this text go back to the supplement of paper PMC4967469.

Lines with a small IC50 respond at low doses; fits outside the tested doses are given as limits. AUC is the area under the same curve over the 256-fold range up to the top dose, as a fraction: 1 means no effect, lower means more sensitive.

Compound in this assay: COc1ccc(C2=N[C@@H](c3ccc(Cl)cc3)[C@@H](c3ccc(Cl)cc3)N2C(=O)N2CCNC(=O)C2)c(OC(C)C)c1 [Nutlin-3a]
Nature of the assay: Viability of human cancer cell lines after 72 h of drug (GDSC screen). The protocol:
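Human cancer cell lines in 384-well plates, medium with 10% serum, drug for 72 h over a 256-fold dose range (nine 2-fold or five 4-fold steps up to the top dose). Adherent lines were fixed and stained with the nucleic acid dye Syto60, suspension lines read with resazurin; signal relative to control wells, capped at 0 and 100%. One two-parameter sigmoid per drug and line, fitted in a mixed model over all curves with the slope shared within a line.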

For orientation: IC50 means the midpoint of a concentration-inhibition curve. Regarding “NB7 (neuroblastoma, adherent, top dose 8 µM)”, the AUC came to 0.986 and the IC50 was > 8 µM.

On to “NB10 (neuroblastoma, adherent, top dose 8 µM)”, for which the AUC worked out at 0.872 and the IC50 amounted to 7.27 µM.

Consider “NB12 (neuroblastoma, adherent, top dose 8 µM)”, for which the AUC came out at 0.891 and the IC50 is > 8 µM.

On to “NB13 (neuroblastoma, adherent, top dose 8 µM)”, for which the AUC stood at 0.989 and the IC50 was > 8 µM.

On to “NB14 (neuroblastoma, adherent, top dose 8 µM)”, for which the AUC came out at 0.989 and the IC50 was > 8 µM.

As to “NB17 (neuroblastoma, adherent, top dose 8 µM)”, the AUC is 0.825 and the IC50 turned out to be 5.79 µM.

In the case of “NB69 (neuroblastoma, adherent, top dose 8 µM)”, the AUC is 0.774 and the IC50 amounted to 2.78 µM.

Take “NB(TU)1-10 (neuroblastoma, adherent, top dose 8 µM)”: the AUC stood at 0.963 and the IC50 was > 8 µM.

“NB-4 (acute myeloid leukaemia, suspension, top dose 8 µM)”: the AUC is 0.991 and the IC50 was > 8 µM.

For “NCC010 (kidney, adherent, top dose 8 µM)”, the AUC was 0.986 and the IC50 was > 8 µM.

Turning to “NCC021 (kidney, adherent, top dose 8 µM)”, the AUC stood at 0.972 and the IC50 was > 8 µM.

As to “NCI-H23 (lung adenocarcinoma, adherent, top dose 8 µM)”, the AUC is 0.956 and the IC50 was > 8 µM.

“NCI-H28 (mesothelioma, adherent, top dose 8 µM)”: the AUC is 0.802 and the half-maximal inhibitory concentration (IC50) came out at 5.51 µM.

Take “NCI-H64 (small cell lung carcinoma, suspension, top dose 8 µM)”: the AUC amounted to 0.995 and the IC50 was > 8 µM.

For “NCI-H69 (small cell lung carcinoma, suspension, top dose 8 µM)”, the AUC turned out to be 0.986 and the half-maximal inhibitory concentration (IC50) was > 8 µM.

Consider “NCI-H82 (small cell lung carcinoma, suspension, top dose 8 µM)”, for which the AUC is 0.98 and the IC50 is > 8 µM.

Turning to “NCI-H146 (small cell lung carcinoma, suspension, top dose 8 µM)”, the AUC was determined as 0.993 and the IC50 was > 8 µM.

Take “NCI-H187 (small cell lung carcinoma, suspension, top dose 8 µM)”: the AUC was 0.988 and the IC50 is > 8 µM.

“NCI-H209 (small cell lung carcinoma, suspension, top dose 8 µM)”: the AUC is 0.951 and the half-maximal inhibitory concentration (IC50) is > 8 µM.

With “NCI-H211 (small cell lung carcinoma, adherent, top dose 8 µM)”, the AUC was 0.965 and the IC50 is > 8 µM.

Consider “NCI-H226 (lung squamous cell carcinoma, adherent, top dose 8 µM)”, for which the AUC is 0.828 and the IC50 stood at 5.27 µM.

As for “NCI-H322M (lung adenocarcinoma, suspension, top dose 8 µM)”, the AUC was found to be 0.973 and the IC50 was > 8 µM.

On to “NCI-H345 (small cell lung carcinoma, suspension, top dose 8 µM)”, for which the AUC stood at 0.99 and the IC50 is > 8 µM.

As to “NCI-H358 (lung adenocarcinoma, adherent, top dose 4 µM)”, the AUC was found to be 0.893 and the IC50 is > 4 µM.

Turning to “NCI-H446 (small cell lung carcinoma, semi-adherent, top dose 8 µM)”, the AUC was determined as 0.985 and the IC50 is > 8 µM.

With “NCI-H460 (large cell lung carcinoma, adherent, top dose 8 µM)”, the AUC is 0.836 and the IC50 is 4.6 µM.

With “NCI-H508 (large intestine, semi-adherent, top dose 8 µM)”, the AUC was 0.976 and the IC50 is > 8 µM.

Take “NCI-H510A (small cell lung carcinoma, semi-adherent, top dose 8 µM)”: the AUC is 0.98 and the half-inhibitory concentration (IC50) was > 8 µM.

As to “NCI-H520 (lung squamous cell carcinoma, adherent, top dose 8 µM)”, the AUC is 0.981 and the IC50 was > 8 µM.

Consider “NCI-H522 (lung adenocarcinoma, adherent, top dose 4 µM)”, for which the AUC was determined as 0.978 and the IC50 is > 4 µM.

Turning to “NCI-H524 (small cell lung carcinoma, suspension, top dose 8 µM)”, the AUC stood at 0.981 and the concentration for half-maximal inhibition (IC50) was > 8 µM.

Turning to “NCI-H526 (small cell lung carcinoma, suspension, top dose 8 µM)”, the AUC was determined as 0.986 and the IC50 was > 8 µM.

In the case of “NCI-H596 (lung adenocarcinoma, adherent, top dose 8 µM)”, the AUC worked out at 0.982 and the half-maximal inhibitory concentration (IC50) was > 8 µM.

For the cell line “NCI-H630 (large intestine, adherent, top dose 8 µM)”, the AUC is 0.977 and the IC50 is > 8 µM.

Take “NCI-H647 (non-small cell lung carcinoma, adherent, top dose 8 µM)”: the AUC stood at 0.983 and the IC50 was > 8 µM.

For the cell line “NCI-H650 (lung adenocarcinoma, adherent, top dose 8 µM)”, the AUC was found to be 0.985 and the IC50 is > 8 µM.

As for “NCI-H661 (large cell lung carcinoma, adherent, top dose 8 µM)”, the AUC is 0.942 and the 50% inhibitory concentration (IC50) is > 8 µM.

“NCI-H720 (lung carcinoid, suspension, top dose 8 µM)”: the AUC was determined as 0.99 and the IC50 was > 8 µM.

As to “NCI-H727 (lung carcinoid, adherent, top dose 8 µM)”, the AUC was 0.968 and the IC50 is > 8 µM.

Consider “NCI-H747 (large intestine, adherent, top dose 8 µM)”, for which the AUC was 0.855 and the IC50 is > 8 µM.

With “NCI-H810 (large cell lung carcinoma, adherent, top dose 8 µM)”, the AUC came out at 0.988 and the IC50 is > 8 µM.

Consider “NCI-H835 (lung carcinoid, suspension, top dose 8 µM)”, for which the AUC worked out at 0.984 and the IC50 was > 8 µM.

“NCI-H838 (lung adenocarcinoma, adherent, top dose 8 µM)”: the AUC worked out at 0.987 and the IC50 is > 8 µM.

For the cell line “NCI-H841 (small cell lung carcinoma, adherent, top dose 8 µM)”, the AUC was 0.988 and the IC50 was > 8 µM.

In the case of “NCI-H847 (small cell lung carcinoma, adherent, top dose 8 µM)”, the AUC stood at 0.993 and the IC50 is > 8 µM.

In the case of “NCI-H929 (myeloma, suspension, top dose 8 µM)”, the AUC turned out to be 0.801 and the half-inhibitory concentration (IC50) stood at 3.24 µM.

On to “NCI-H1048 (small cell lung carcinoma, adherent, top dose 8 µM)”, for which the AUC came out at 0.99 and the IC50 was > 8 µM.

As for “NCI-H1092 (small cell lung carcinoma, suspension, top dose 8 µM)”, the AUC worked out at 0.99 and the IC50 is > 8 µM.

Take “NCI-H1105 (small cell lung carcinoma, suspension, top dose 8 µM)”: the AUC was 0.993 and the IC50 is > 8 µM.

With “NCI-H1155 (large cell lung carcinoma, suspension, top dose 8 µM)”, the AUC is 0.993 and the IC50 is > 8 µM.

As to “NCI-H1304 (small cell lung carcinoma, suspension, top dose 8 µM)”, the AUC came to 0.988 and the IC50 is > 8 µM.

As for “NCI-H1341 (small cell lung carcinoma, suspension, top dose 8 µM)”, the AUC turned out to be 0.992 and the IC50 was > 8 µM.

As to “NCI-H1355 (lung adenocarcinoma, adherent, top dose 4 µM)”, the AUC amounted to 0.957 and the IC50 was > 4 µM.

With “NCI-H1395 (lung adenocarcinoma, adherent, top dose 8 µM)”, the AUC turned out to be 0.982 and the half-maximal inhibitory concentration (IC50) is > 8 µM.

In the case of “NCI-H1417 (small cell lung carcinoma, suspension, top dose 8 µM)”, the AUC was found to be 0.977 and the IC50 was > 8 µM.

“NCI-H1435 (lung adenocarcinoma, semi-adherent, top dose 8 µM)”: the AUC was determined as 0.99 and the IC50 was > 8 µM.

Turning to “NCI-H1436 (small cell lung carcinoma, suspension, top dose 8 µM)”, the AUC was 0.983 and the IC50 is > 8 µM.

“NCI-H1437 (lung adenocarcinoma, adherent, top dose 8 µM)”: the AUC turned out to be 0.963 and the IC50 is > 8 µM.

Take “NCI-H1563 (lung adenocarcinoma, adherent, top dose 8 µM)”: the AUC was determined as 0.885 and the IC50 is > 8 µM.

Take “NCI-H1568 (lung adenocarcinoma, adherent, top dose 8 µM)”: the AUC is 0.978 and the IC50 was > 8 µM.

As to “NCI-H1623 (lung adenocarcinoma, adherent, top dose 8 µM)”, the AUC is 0.978 and the IC50 was > 8 µM.
